Experimental findings from ChEMBL document CHEMBL4888484, “Replenishing the malaria drug discovery pipeline: Screening and hit evaluation of the MMV Hit Generation Library 1 (HGL1) against asexual blood stage Plasmodium falciparum ,using a nano luciferase reporter read-out” (2022) are described below.

The term % Inhibition denotes the drop in the measured response relative to a control, in per cent.

Hit rate of the full screen: of about 150,000 compounds, about 540 (0.36%) showed an effect of 50% or more. The list shows a part of the results.

In the assay the test system is Plasmodium falciparum. The assay can be described thus: Primary screen in NF54 nanoGlo assay, in single point, at 2uM, 72h; a lower Z score goes with more inhibition. It counts as functional, Erythrocyte. The note with it: timepoint 72 hour.
In the case of `Cc1nc(C(=O)Nc2ccccc2O)c(Cc2ccccc2)s1`, the “% Inhibition” value was -4% and the Z score was 0.55.

In the case of `N#CC1(C(=O)NCC2CN(C(=O)c3ccccc3)C3CCN2C3)CCCCC1` (stereo not drawn), the “% Inhibition” value was -6% and the Z score stood at 0.81.

Take `CCCn1c(=O)sc2cc(S(=O)(=O)N3CCC(C(=O)Nc4ccc(C(C)C)cc4)CC3)ccc21`: the “% Inhibition” value is given as -19% and the Z score was 2.28.

For the molecule `CCOc1ccc(CN2CCN3C(=O)OC[C@H]3C2)cc1Cl`, the “% Inhibition” value was -13% and the Z score amounted to 1.17.

With `Cc1ccc(CCNC(=O)NC[C@H](O)COc2ccc(Cl)c(C)c2)o1`, the “% Inhibition” value is -16% and the Z score is reported as 1.5.

Regarding `CC1(C)[C@@H](O)CCN1C(=O)Nc1cc2c(nn1)CCC2`, the “% Inhibition” value stood at 19% and the Z score is given as -2.45.

As for `Clc1cccc(Cn2ccnc2-c2cccs2)c1`, the “% Inhibition” value is recorded as -7% and the Z score is 0.93.

Consider `Cc1nn(C)c(C)c1CNC(=O)CC1(N2Cc3ccccc3C2=O)CCOCC1`, for which the “% Inhibition” value is -8% and the Z score was 1.04.

Regarding `Cc1c(S(=O)(=O)Nc2cc(C3C(C)(C)C3(C)C)n[nH]2)cnn1C`, the “% Inhibition” value was -7% and the Z score is 0.68.

Take `C[C@H](OC(=O)c1cc(Cl)cc(Cl)c1)C(=O)NC(N)=O`: the “% Inhibition” value is recorded as -6% and the Z score came out at 0.9.

Turning to `O=C(NCc1ccc(F)cc1)c1cnc(-c2ccc(F)cc2)nc1N1CCc2ccccc2C1`, the “% Inhibition” value turned out to be 7% and the Z score is reported as -1.02.

For `O=C(Nc1ccn2nccc2c1)c1ccc2ncsc2c1`, the “% Inhibition” value was -3% and the Z score stood at 0.41.

On to `CC(C)c1nc(CN(C)C[C@@H]2CCCN3CCCC[C@H]23)no1`, for which the “% Inhibition” value came to 3% and the Z score was -0.48.

As to `Cc1ccn([C@@H](C)CC(=O)NCCc2sccc2C)n1`, the “% Inhibition” value is given as -9% and the Z score came out at 1.81.

For `Cc1nc([C@@H]2CCCN2c2ccnc(-c3nccs3)n2)[nH]c1C`, the “% Inhibition” value is recorded as -2% and the Z score was found to be 0.38.

For `CCc1nc(N2CCC3(CC2)C[C@H](c2ccccc2)CN(C2CC2)C3)no1`, the “% Inhibition” value is listed as -8% and the Z score was 1.35.

Take `Cc1ncoc1C(=O)N1CCC(Cc2ccc(CN3CCCC3)cc2)CC1`: the “% Inhibition” value was -8% and the Z score is listed as 1.52.

Regarding `C[C@](O)(CNC(=O)c1cccc(-c2cnco2)c1)CN1CCOCC1`, the “% Inhibition” value is on record as -2% and the Z score is recorded as 0.26.

Consider `Cc1ccc(C(=O)N(Cc2cccc(Br)c2)[C@H]2CCS(=O)(=O)C2)cc1`, for which the “% Inhibition” value is listed as -12% and the Z score came out at 1.05.

Regarding `O=C1CN(C(=O)N[C@@H](Cc2ccccc2)C(=O)N2CCCCCC2)c2ccccc2N1`, the “% Inhibition” value was 2% and the Z score is -0.24.

As for `c1cnc2sc(CN3CCC[C@H]3c3ncc[nH]3)nc2c1`, the “% Inhibition” value was -5% and the Z score is listed as 0.82.

For the molecule `Cn1nnc(CNC(=O)N[C@H]2CC(C)(C)CCc3ccccc32)n1`, the “% Inhibition” value is -18% and the Z score amounted to 1.74.

For the molecule `Cc1cc(NC(=O)NCc2csc(C)n2)no1`, the “% Inhibition” value is on record as -4% and the Z score is on record as 0.58.

Take `Cc1ccc([C@H](CN2CCOCC2)NC(=O)c2cc(-c3ccco3)nc3onc(C)c23)cc1`: the “% Inhibition” value is listed as -24% and the Z score is recorded as 2.87.

For the molecule `CC[C@H](C)Oc1cc(-c2nc(CC(=O)NC)no2)ccn1`, the “% Inhibition” value is reported as -15% and the Z score is given as 1.31.

For `COc1cccc(NC(=O)C[C@H]2CCCN(c3cnn(CC4CC4)c(=O)c3)C2)c1`, the “% Inhibition” value is listed as 2% and the Z score is recorded as -0.28.

Consider `CCOCCOc1cc(C)ccc1CNc1nccn(C)c1=O`, for which the “% Inhibition” value is reported as 4% and the Z score is -0.55.

For `Cc1cc(S(=O)(=O)N2CC3CCCCC3C2)c(C)o1` (stereo not drawn), the “% Inhibition” value came out at 33% and the Z score is listed as -3.75.

Take `Cc1coc(C)c1C(=O)NC1(CO)CCOCC1`: the “% Inhibition” value is 36% and the Z score is -3.04.

Consider `C[C@@H]1CN(C(=O)c2noc(-c3cccc(F)c3)n2)C[C@@]1(C)CN`, for which the “% Inhibition” value is -18% and the Z score came to 3.23.

Regarding `Cc1ccsc1CN(C)c1cc([C@H]2CCCNC2)ncn1`, the “% Inhibition” value is given as -4% and the Z score is 0.56.

As to `CN(Cc1ccc(F)cc1)c1ncnc(Oc2ccc(F)cc2F)c1N`, the “% Inhibition” value is -4% and the Z score was 0.63.

Turning to `Cc1n[nH]c(C2CC2)c1C(=O)NCCCN1C[C@@H](C)O[C@@H](C)C1`, the “% Inhibition” value is -9% and the Z score turned out to be 0.89.

Regarding `Cc1cnc2c(C(=O)N(C)[C@@H](C)Cc3ncccc3C)cnn2c1`, the “% Inhibition” value is -4% and the Z score is given as 0.42.

As for `COc1ccc(CCC(=O)N2CCN=C2N2CCN(C)CC2)cc1`, the “% Inhibition” value was -2% and the Z score is reported as 0.39.

Consider `O=C(CCCc1ccc(O)c(F)c1)N1CC2(CCOC2)C1`, for which the “% Inhibition” value was -3% and the Z score stood at 0.37.

For the molecule `c1ncc(-c2cn(Cc3ccoc3)nn2)cn1`, the “% Inhibition” value is listed as -5% and the Z score is 0.83.

Regarding `Cc1ncc(S(N)(=O)=O)cc1C(=O)N(C)CCn1cccn1`, the “% Inhibition” value is -7% and the Z score is given as 0.88.

Consider `Cc1nc(C)c(Cn2cc(COCc3ccccc3)nn2)s1`, for which the “% Inhibition” value is on record as -11% and the Z score came to 1.96.

Turning to `O=C(Cc1noc2ccccc12)N1CCN(C(=O)c2cnn3ccccc23)CC1`, the “% Inhibition” value was -11% and the Z score was found to be 1.77.

`COc1ccc(-c2ccnc3cc(C(=O)Nc4cc(C)cc(C)c4)nn23)cc1OC`: the “% Inhibition” value was 0% and the Z score is listed as -0.03.

`Cc1[nH]c(-c2ccc(F)cc2)cc1C(=O)N1CCN(C2CCCCC2)CC1`: the “% Inhibition” value is given as -1% and the Z score stood at 0.23.

With `Cc1nccn1CCCC(=O)N[C@H](C#N)c1cnn(-c2ccccc2)c1`, the “% Inhibition” value was -12% and the Z score worked out at 1.71.

With `O=C(Nc1cnn([C@H]2CCOC2)c1)c1cnccn1`, the “% Inhibition” value worked out at 18% and the Z score was -2.32.

For the molecule `Cc1ccccc1CC(=O)N[C@H]1CCCCNC1=O`, the “% Inhibition” value is listed as 0% and the Z score turned out to be 0.03.

As for `COCCN(CCOC)CC[C@@H]1CC[C@H](O)[C@@H](C(=O)N(C)Cc2ccccc2)O1`, the “% Inhibition” value is given as -7% and the Z score was determined as 1.06.

In the case of `Cc1nc(-c2ccccc2)sc1NC(=O)Nc1cnn(C)c1`, the “% Inhibition” value was -8% and the Z score is given as 0.81.

In the case of `COC1CCC(N(C)C(=O)C2CC(=O)NC(C)C2)CC1` (stereo not drawn), the “% Inhibition” value was -4% and the Z score was determined as 0.51.

Consider `Cc1n[nH]c(C)c1C(=O)N1CCC[C@@]2(C=Cc3ccccc3O2)CC1`, for which the “% Inhibition” value was -6% and the Z score is 1.28.

For the molecule `COc1cccc(-c2nccn2-c2ccc3cn[nH]c3c2)c1OC`, the “% Inhibition” value is given as 5% and the Z score is -0.61.

In the case of `O=c1n(Cc2ccc(F)c(F)c2)nc(C2CCNCC2)n1Cc1ccccc1`, the “% Inhibition” value is listed as -1% and the Z score stood at 0.08.

Regarding `CC(C)n1cnc(C(=O)N2CCN(Cc3ccccc3Cl)CC2)c1`, the “% Inhibition” value is listed as -6% and the Z score amounted to 1.2.

Turning to `Cc1noc(C)c1CCCNC(=O)c1ccc(N2CCC[C@@H]2CO)nc1`, the “% Inhibition” value turned out to be 4% and the Z score is on record as -0.82.

Turning to `CC[C@@H](CO)N(Cc1ccc(C)s1)C(=O)c1csc(CN(C)C)n1`, the “% Inhibition” value is on record as -5% and the Z score was 0.71.
